Results as given in article PMC12136788.
The other results are listed elsewhere or left out.

T1: UNK ZnF1-3 (human, UniProt Q9C0B0 31-174)
T1 sequence: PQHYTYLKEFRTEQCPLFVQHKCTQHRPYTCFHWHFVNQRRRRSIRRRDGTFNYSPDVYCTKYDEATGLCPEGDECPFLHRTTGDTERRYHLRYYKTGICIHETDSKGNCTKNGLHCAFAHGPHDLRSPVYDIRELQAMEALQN

B1: chr9:78326885:78326886:-_ENSMUSG00000037742_ENSMUST00000042235|mus_mus|motif|central (ssRNA)
RNA: GGGAGUUCUACAGUCCGACGAUCCAGCUUCUUACCAGAACGACGAUCGAUCUUUUCUUUAAGCUCAGCAAACUUGCAUGCGGUGUGGGCUGUGUGACAAUCCAGAACAGGAGCGUAGCCAGCACUGAUUUGGCCUGGAUGGUUCAACAGAGGAUUGAGCAUCA
B2: chr9:128199989:128199990:-_ENSG00000119487_ENST00000373498|hu_hu|motif|central (ssRNA)
RNA: GGGAGUUCUACAGUCCGACGAUCUUUAAGAUGCUGUUUUAGACACAUCUCUUCCUGUACAACAAUUUAAAAAAUGUUUCGGAUGCAGGUCCUCAGUGAAACACCGGUCCCCGGCCCUGGCUGGGGACAGUAAGGACAUCACCGCAACAGAGGAUUGAGCAUCA
B3: 21594510_21594630_599_3pUTR_ENSG00000124766_ENST00000244745|human|control|control (ssRNA)
RNA: GGGAGUUCUACAGUCCGACGAUCAACUCCUCGCAGGGGCGGAGGUGGGUAAAGAGAGAAAAGUCCCCAAAAGAUUUGGGGAAGGAGUUCUCCGCCUCUCGCAGAGGAGUUAUAGUUCCCAGGCUGGAGAGUCUCUCUCUCCCUCAACAGAGGAUUGAGCAUCA
B4: chr8:95500983:95500984:-_ENSG00000164944_ENST00000437199|hu_hu|hu_hu_hu_mus_True|8_48 (ssRNA)
RNA: GGGAGUUCUACAGUCCGACGAUCAGAACACAUCUAUCGAGUAAAGGACCGUACAUGACGGCCUCUACCACUGCCUCCACUAACAAAACUUUCCUCUGAGCCUCCACUGCCGCUAUUUGUACUAGCCCCAGGAAGGUCCAGGCCCAACAGAGGAUUGAGCAUCA
B5: chr5:128440902:128440903:+_ENSG00000066583_ENST00000173527|hu_mus|hu_hu_hu_mus_True|98_108 (ssRNA)
RNA: GGGAGUUCUACAGUCCGACGAUCUUGAACCGUGCUCCCAAGACCUUUGGGGUAUUGUUCCGUUAUGAUAACUGGAAUCCCUAAGAUCCGAGCUCCUUGCAACAGUCUCUGUCCCACACUAAUGAUGUCCCCAAAGUAUUUGAUCAACAGAGGAUUGAGCAUCA
B6: 24205895_24207654_721_CDS_ENSG00000173960_ENST00000309033|human|control|control (ssRNA)
RNA: GGGAGUUCUACAGUCCGACGAUCCCAGAUCUGUAUAUUAGUAAUGGGUUCCAAGUUGUUCAGUGGAACAGCAGACAAAUUAUUUUUAUUUUCAACUUCAAUAUUCUUUGCUUUAGAAACAAUUUUUGGUGUGGCACUUCCUAGCAACAGAGGAUUGAGCAUCA
B7: 186306252_186307248_4635_CDS_ENSG00000047410_ENST00000367478|human|control|control (ssRNA)
RNA: GGGAGUUCUACAGUCCGACGAUCAUGGUCUCCAGAGGACUGAGCCGAUGUCUCCAUAACCUUAUCCUGUUGUGCUUUAAGUUCUUCAUAUUGAGUCUUGUACCUACGUCCAAUUUUCUUAACUUGAGUAAUAGUUUUGACUUUCAACAGAGGAUUGAGCAUCA
B8: chr2:122217683:122217684:-_ENSG00000074054_ENST00000409078|hu_mus|FALSE|FALSE (ssRNA)
RNA: GGGAGUUCUACAGUCCGACGAUCACGCAAGUGUUGAAAGAAGUUAUCGUACUCAGCAGCCCCAGCCAAGAGUAACGAUCUAAUCUUUUUUAGAGCAUUUACUCUCUGCUCCCAGUCAUGCUUGUCAUCUGACAGGAUUUCUCUCAACAGAGGAUUGAGCAUCA
B9: chr3:100845581:100845582:-_ENSMUSG00000027864_ENSMUST00000102694|mus_mus|motif|central (ssRNA)
RNA: GGGAGUUCUACAGUCCGACGAUCGCUUGUGUGGGGUGCAUCUGCUACUGACUCUAAACCUGGACCCCACCUGGGCGGGAGCGGCCUUCUCAAAAUCUCAUUACACGAGCAGCCCCCAAGGUGGGCUCAAAACAAGCAGAGGAACAACAGAGGAUUGAGCAUCA
B10: chr3:55757038:55757039:-_ENSMUSG00000027799_ENSMUST00000029374|mus_hu|FALSE|FALSE (ssRNA)
RNA: GGGAGUUCUACAGUCCGACGAUCCAUUGGAGCAACAGUUUGUACAGCUGGAAGGUUUUUGCUAGUAGCACCAUUCACAAAACUAGAAGAGGAGGAAGAGGAGGAGGACCCUGAAUCCACGGCACCUGUUGUAUUAAUCAUACUCAACAGAGGAUUGAGCAUCA
B11: 64113564_64114547_1297_CDS_ENSG00000169764_ENST00000394417|human|control|control (ssRNA)
RNA: GGGAGUUCUACAGUCCGACGAUCUCCAUCCAAAGUCUUUGCAUUCACAAUGAUUUCCAUGUCAAUGGCAUUUUGCUCCUGCAGUCUUUUAACUGCUGCAAGAGAAAUCCAUAGGUUGUUUGUAUUAAAUAUUUUGAACUUUGACAACAGAGGAUUGAGCAUCA
B12: chr5:38546887:38546888:-_ENSMUSG00000029126_ENSMUST00000031009|mus_mus|FALSE|FALSE (ssRNA)
RNA: GGGAGUUCUACAGUCCGACGAUCGACCAGCACGGAGACCUUAAACCUCUCGGUGACACCCUCGGUGAUGCUGACGGUGAACUCGGCUAUCUUGGGAGGACGUGCUUUUCCUUUUUUGCGAUCAGGUUCAUAUUCAGUCUUAGUCAACAGAGGAUUGAGCAUCA
B13: 156047345_156047465_522_3pUTR_ENSG00000254726_ENST00000532414|human|control|control (ssRNA)
RNA: GGGAGUUCUACAGUCCGACGAUCGAUGAUUUCCCGCCGGGCUGUGGCCACGUCCUCCCGUCGCCCUGUCACCAUGAACACUGGUUCCUCGCCCCUCACCGGUGUCUUGAUGUAGGUGUUGGUCUUGGCCCUCAAGGCCUUAAUCAACAGAGGAUUGAGCAUCA
B14: 105898293_105898413_168_5pUTR_ENSMUSG00000049354_ENSMUST00000058438|mouse|control|control (ssRNA)
RNA: GGGAGUUCUACAGUCCGACGAUCGCCAGAGAGGCAGCGGGCUGGGGCACAAGACAGGCGGGGACCCGGGCUUGGGUCCGCGGGUCCGAGGGGAGGCGGGGCCGGGGCGGUCAAGAACGGCCUAGCCCUCCAGCGGGUCCUCGGCAACAGAGGAUUGAGCAUCA
B15: 147386883_147387875_1828_3pUTR_ENSMUSG00000029016_ENSMUST00000137724|mouse|control|control (ssRNA)
RNA: GGGAGUUCUACAGUCCGACGAUCUGGGCUCCAUGAUGUCACUGGCUCUCAGCUUGUCCAUUUCCACGUCUGUCUCCCACUCCAGAAGAGGCACACCUCUCAGCCCAAUAUGGACGUCAUAAAUGCCCUUGUUGAACAAGUCUCCAACAGAGGAUUGAGCAUCA
B16: chr2:187370260:187370261:+_ENSG00000065548_ENST00000337859|hu_mus|FALSE|FALSE (ssRNA)
RNA: GGGAGUUCUACAGUCCGACGAUCGCUUUCCCUGCUUUGAAGUCAGCUUUCCGCCUCUCCAUAUCUUGUUCAAGUUUAUCAAUCUUUUCUUGUCUUUUCCUCUUCUUCCACGCGAGAAAAGACUCUAGAGUGAUUUUGGUAACACAACAGAGGAUUGAGCAUCA
B17: chr8:28827827:28827828:+_ENSG00000147421_ENST00000397358|hu_hu|motif|central (ssRNA)
RNA: GGGAGUUCUACAGUCCGACGAUCAUUCUCCCUCCCAUUUUGAUUGGUAGUGCAAGGCUGUGGGGAAGUAUCAUAACUGUUGCGGGGUGACGGGGACAUUCCCGAAUGCUGCGUCUGUGUGGAAGCUGUAGCUGUAGAGGAAGACAACAGAGGAUUGAGCAUCA
B18: chr1:17152557:17152558:+_ENSMUSG00000025777_ENSMUST00000026879|mus_mus|FALSE|FALSE (ssRNA)
RNA: GGGAGUUCUACAGUCCGACGAUCUUCUCAUCAAAUUAUCCACUACCAUCCAUAAGCCAUAUUUACUUGAGACAUUCAUCUAUAUAUUACUUGUAUGCAUAAAUAGGGCUGUCGAGGCCAAGGUUCCCAGGACUGAAGACAAUCCAACAGAGGAUUGAGCAUCA
B19: chr14:103803487:103803488:+_ENSG00000100664_ENST00000558506|hu_mus|motif|central (ssRNA)
RNA: GGGAGUUCUACAGUCCGACGAUCGAGUUUAUGAUGUGUGUCAAGCAUGCCUCGGUACCCACAGGCUUUACAAGAAUUACCGGUUGUUUGCUUCUUUGGAUUGACAUGCAGAUCUGUUUCAGGAUUCUCACACUCAGGACAGAGCAACAGAGGAUUGAGCAUCA
B20: chr5:145543945:145543946:-_ENSG00000133706_ENST00000545646|hu_hu|hu_hu_hu_mus_True|68_108 (ssRNA)
RNA: GGGAGUUCUACAGUCCGACGAUCCUGAAUAGCCAGUGGUGGGAAAUAAUCAAGCCAGUGCUCUGCUUCAGAAAAUUUCACUAUGUCGUCAUCAGAGAGCCCAAGGGAUUUCAUAAUGUCCCACUGGUACUUAGAAGAUCCUGCCAACAGAGGAUUGAGCAUCA
B21: 5291987_5292107_498_CDS_ENSG00000198081_ENST00000357006|human|control|control (ssRNA)
RNA: GGGAGUUCUACAGUCCGACGAUCAGAACUAUCAACCUCAAGCUUCUUGAAAAGCUUUUUAAAGUAAGUGCUGCAGGCAGCAAGAACACAUCUGUGUGCUCUGAAUUUCACAUCCUCAACCACAAUAGCAAUAUCACAAAAUUCCAACAGAGGAUUGAGCAUCA
B22: 78790393_78791387_1050_CDS_ENSMUSG00000033088_ENSMUST00000109689|mouse|control|control (ssRNA)
RNA: GGGAGUUCUACAGUCCGACGAUCGUCCCAAUCCACAGAAGAGGAAUUGCUGGUAUCAUGAGGGGUAUUGCUGUCUUGGCUGGAGCUGGUGUUGGAGUUAGGGUCCUCGUCUUCGUCCUUGUUGUCGUUGUCGUCAGUGCAGCUCAACAGAGGAUUGAGCAUCA

target: T1, UNK ZnF1-3; test: nsRBNS (natural sequence RNA bind-n-seq); RBNS binding buffer (assumed for nsRBNS): 25 mM Tris pH 7.5, 150 mM KCl, 3 mM MgCl2, 0.01% Triton X-100, 500 ug/ml BSA, 20 U/ml SUPERase-In, 4 C; UNK is unkempt and MSI1 is Musashi-1; names of the RNAs are library labels; protein concentration not given here; high values mean tight binding

Binder	binding signal [enrichment R]
B1	1.07
B2	0.542
B3	0.776
B4	0.778
B5	0.599
B6	1.45
B7	0.903
B8	0.66
B9	1.23
B10	1.59
B11	0.769
B12	0.924
B13	0.753
B14	1.28
B15	0.887
B16	0.469
B17	1.58
B18	1.69
B19	1.18
B20	1.3
B21	1.05
B22	0.864
